# In all, about 33,000 sequences were measured (“E-score (-0.5 to 0.5)”: median about -0.054, highest 2% from about 0.39 on). This is one part of the list.
# Molecular target: Ylr278c (UniProt Q05854)
# Assay: PBM E-score (8-mer binding enrichment) (E-score (-0.5 to 0.5)); higher = stronger / more preferred TF binding; most listed sequences are background and not binding sites
# Details: protein concentration: 200 nM; construct: GST-DNA-binding domain
# Outline: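 For each ungapped eight-base word taken together with its reverse complement, the Universal PBM Analysis Suite assigned an E-score. Binding data came from GST-tagged yeast transcription factors, applied at about 100-200 nM, on universal all-10-mer Agilent arrays made double-stranded by primer extension. Fluorescent anti-GST marked bound protein, and scans were normalised with masliner.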
row,Sequence,PBM E-score
1,AGGGACTC,-0.166
2,ATGCCTGC,0.00735
3,CTACGTAA,-0.068
4,ATGGAGGC,-0.15
5,CATACAGA,-0.0143
6,AAGTTCGA,-0.0118
7,AAGCTTGT,-0.0549
8,GCCGTCAA,-0.0801
9,CGAGCTTA,-0.0265
10,CCTGATCC,0.055
11,AGCGACAA,-0.185
12,AAGGTTTG,-0.0884
13,CTTCTGCC,-0.135
14,GTTTGGCA,-0.118
15,TATGGCAA,-0.0943
16,CCTATCTC,0.144
17,GACGGCTC,0.0564
18,CTGGAGCA,-0.185
19,AAATACCC,0.192
20,GCTCGGCC,0.152
21,GCAAAGCA,-0.178
22,CTATCGAC,-0.228
23,CTCCCGTC,0.213
24,ACAGTACT,-0.146
25,AGGGCTCA,-0.277

row,Sequence,PBM E-score
1,AATCGGGA,0.231
2,CTGTACGC,-0.138
3,GCCGAAAA,0.359
4,AGTCAACT,-0.312
5,CTAGTGCA,-0.0821
6,ACAAATTC,0.153
7,CAATCGGC,0.129
8,CACAATAA,-0.137
9,CCAAGCTC,-0.0553
10,CAGTATTC,-0.101
11,TGTGCCAA,-0.0672
12,GCCAAACA,0.0977
13,CCTGACAG,-0.0842
14,GCCGCACC,0.24
15,GCCTGTTA,-0.189
16,GGCAACCA,0.0912
17,AGATGAAG,-0.123
18,ACTCATGG,-0.191
19,AGGGGCTG,-0.177
20,ATTTCTTC,0.1
21,CCATTGCA,-0.289
22,CCGTAGCC,0.0108
23,ACTTACTG,-0.0338
24,CAATTGAC,0.0114
25,CTCGAACA,-0.209

row,Sequence,PBM E-score
1,ACCGACCG,0.184
2,AGTTCTAC,-0.331
3,CCACCGCC,0.00359
4,ATTTGGCA,-0.183
5,GAGACTCA,-0.113
6,CTGCTTAA,-0.116
7,CCAGTTAG,-0.247
8,CTGCCCAG,-0.158
9,CAGCTAAG,-0.453
10,CTGAAGTA,-0.0935
11,ACAACGTG,-0.0794
12,CGGCAACG,0.164
13,GGCTAGAC,-0.0944
14,CGGTAATC,0.326
15,CTATCCTA,-0.0472
16,ATGGTTAG,0.0697
17,CTCCACAC,-0.156
18,GCAAATCC,0.286
19,AGCATCCA,-0.17
20,CTGCAAAG,-0.3
21,GGGGAGCA,-0.0491
22,AACCGGAG,0.48
23,GCCGCCAC,0.0465
24,CCACTTAA,0.0138
25,ACAGTTGC,-0.0746

row,Sequence,PBM E-score
1,ATTTACCA,0.0876
2,CCGCTTCC,0.278
3,AGGTGCTC,-0.163
4,AAGAGATC,-0.146
5,CATCTACG,0.0857
6,AGCCCCAC,0.00659
7,AAACTCGC,0.0784
8,GGGCTGGA,-0.0332
9,CGTTCAAG,0.0399
10,ACAGTGGC,-0.205
11,GCAGAGGA,-0.104
12,CAGTAACG,-0.117
13,TACCTCGA,-0.212
14,TCCCATAA,-0.204
15,AACACAGT,-0.0468
16,GGATACCA,0.082
17,GATACCGA,0.0344
18,GAGAGTAC,-0.0459
19,AGGGAGTC,-0.297
20,AAGGTCGT,-0.279
21,AAAGCCTC,-0.0828
22,AGTGGAGC,-0.209
23,ATAAATCA,-0.166
24,CCGGTGAA,0.363
25,TATGCCAA,-0.142

row,Sequence,PBM E-score
1,CGGAGCTA,0.42
2,AGGTGGCA,-0.169
3,CTACGGAA,0.197
4,AACTTGAC,-0.104
5,CCCTGCAC,-0.0902
6,GCATTAGA,-0.00923
7,GCGCCGAC,0.269
8,GTAGCCCA,-0.232
9,GCAGGGGA,-0.143
10,AGCCTGGC,-0.226
11,CGGAACGC,0.348
12,CGGACCTC,0.37
13,GCTATAGA,-0.234
14,CCGGAGTC,0.451
15,AGTTTAAC,-0.158
16,GATGCGGC,0.0424
17,CGAGACTA,0.077
18,CGCTTGGC,-0.253
19,AGTAGACC,-0.18
20,CACCCCTA,-0.0875
21,CTGCCTGC,-0.157
22,CACCGCCG,0.273
23,CAATATGA,-0.0406
24,ATACCCTA,-0.301
25,AATCTCTA,-0.142

row,Sequence,PBM E-score
1,CGTTGCAA,-0.102
2,GCTAAGAC,-0.0188
3,CTGTATCC,0.047
4,CAAGCTCG,0.091
5,ATAAACGC,0.0693
6,CCGTTGGC,0.228
7,CTAGGGCC,-0.197
8,CCGATCAC,0.312
9,TAAACCGA,0.0399
10,AGGGCCAT,-0.178
11,GTTCGTCA,-0.15
12,AGCCCTGC,-0.278
13,CGTGGGGA,-0.0985
14,GCAGGTGA,-0.115
15,CTCATGTC,-0.1
16,AACGGCTT,0.0117
17,AGCCATGG,-0.353
18,TACGGCTA,-0.154
19,ATCGGTTC,0.13
20,AGCCTTCC,-0.134
21,CAGATGAG,-0.273
22,AGAGCTGG,-0.0321
23,GGGGCCAA,-0.0596
24,GACTGTAA,-0.14
25,GGAGCCCA,-0.0232

row,Sequence,PBM E-score
1,GCCTTTGA,-0.0973
2,GTAGTTAA,-0.198
3,ACTTAGGA,-0.402
4,AGTAGATG,-0.0703
5,CAGGCCAC,-0.182
6,AGCTCCGA,0.47
7,CGGGCCCG,0.398
8,CCGCTAAG,0.11
9,CAGACGCG,-0.215
10,ACCGGGAA,0.352
11,GGGAGTAA,0.0663
12,CTATTCAA,-0.198
13,AGGGGTAC,-0.107
14,GTGACACA,-0.0204
15,AGCTTGGC,-0.114
16,ACTCATTG,-0.12
17,AGCACGCG,0.018
18,GAGACGAA,-0.132
19,CTTCGTTC,-0.185
20,CGAGACCC,0.142
21,CGTGTTCC,0.3
22,GCGTCTCC,0.231

# Reference: the supplement of paper PMC3334620
